Entries after “also recorded” stand apart in the source; their conditions may differ.
Experiments:
WaGa = test: Immunocytochemical fixation of antibody on tumor cells (peroxidase); format: binding; details: m906 650 ng/mL, trastuzumab 40 ng/mL; peroxidase secondary antibody
MS-1 = test: as above; format: binding; details: m906 650 ng/mL, trastuzumab 40 ng/mL; peroxidase secondary antibody
PeTa = test: as above; format: binding; details: m906 650 ng/mL, trastuzumab 40 ng/mL; peroxidase secondary antibody
MKL-2 = test: as above; format: binding; details: m906 650 ng/mL, trastuzumab 40 ng/mL; peroxidase secondary antibody
SK-BR-3 = test: as above; format: binding; details: m906 650 ng/mL, trastuzumab 40 ng/mL; CD56-negative HER2-positive control line
WaGa cells = test: Imaging flow cytometry, internalisation and lysosomal co-localization of m906-Alexa Fluor 750; format: cell-based; details: for BDS score (LAMP1/m906): Bright Detail Similarity, lysosomal co-localization; for Intracellular fluorescence of m906 (MFI) / m906 fluorescence surface (MFI): m906-Alexa Fluor 750, WaGa; for Internalisation score for m906: positive score = internalized
Description: In order to confirm its internalisation into the tumor cells, the antibody m906 was conjugated with Alexa Fluor 750 using the “SAIVI Rapid Antibody Labeling Kit” (Thermoscientific) following the instructions provided by the manufacturer. The WaGa cells (500 000 cells) were incubated for 30 min at ambient temperature with the conjugate m906-Alexa Fluor 750 in a buffer solution (PBS 1X, 2% fetal calf serum, 0.1% sodium azide). The cells were then fixed with the aid of BD Cytofix/Cytoperm (BD Biosciences) and permeabilized with Permwash (BD Biosciences, diluted to 1/10e) in accordance with the instructions from the manufacturer. The nuclear and lysosomal compartments were labeled with Hoechst 33342 (BD Pharmigen, 1/10000) and an anti-LAMP1 antibody coupled to phycoerythrin-Cyanine 5 (BD Pharmigen, H4A3), respectively. The analysis of the labeled cells was carried out with the aid of an Amnis® ImageStream®X Mark II flow cytometry imager (Amnis Corp., part of EMD Millipore, Seattle, WA) equipped with 4 lasers (375 nm, 488 nm, 642 nm and 785 nm (SSC)). The images for the WaGa cells were captured with Inspire™ imaging flow cytometry software at a magnification of 60X and with an extended depth of field (EDF).
Compensations were made before each analysis. The cells of interest were identified using the “Gradient RMS” tool of the Bright Field image (BF: white light). Debris and cellular doublets were excluded from the analysis as a function of the aspect ratio with respect to the zone of the BF image. The surface area and the mean intensity of the intracellular fluorescence (IMF) of the m906 conjugated with Alexa Fluor 750 (channel 12) was evaluated for 2 different incubation times (5 and 30 min) with the aid of the “surface mask” and “cytoplasm mask” tools, using the IDEAS® v6.2 software. The internalisation score for the m906 conjugated with Alexa Fluor 750 (channel 12) was determined using the internalisation function, allowing the ratio of the intensity of intracellular fluorescence to the intensity of the whole cells to be defined. Cells with internalized antibodies have positive scores. The co-localization assistant using the “Bright Detail Similarity” (BDS) function was employed in order to quantify the level of co-localization between the anti-LAMP1 antibody conjugated with phycoerythrin-Cyanine 5 (channel 5) and the m906 conjugated with Alexa Fluor 750 (channel 12). The positive score for BDS (n. 1) indicates lysosomal localization for the m906.

[1] = test system: H69 small cell lung carcinoma cell line
Description: (§1) In order to evaluate cell viability, a cytotoxicity test using XTT was carried out. The cells were deposited in a 96-well plate (50 000 cells/well) in 7 replicates. […] The culture medium acted as a negative control. After 4 days of exposure to the drug, 25 μL of reagent XTT was added per well and the absorption was measured at 450 nm after 4 hours of incubation at 37° C. The absorption at 620 nm was used as a reference.

[2] = test system: MCC lines (WaGa, PeTa, MS-1, MKL-2)
Description: as §1

primary NK cells = test: Killing effect on primary NK cells (Annexin V / 7-AAD flow cytometry); format: cell-based, human; details: in words
Description: (§2) Primary natural killer cells (NK) and monocytes were obtained from blood of healthy adult volunteers at the Etablissement Français du Sang, according to institutional research protection guidelines agreement N° CA-REC-2019-188, Centre Val de Loire, France. Ficoll density centrifugation step (Eurobio) was performed to isolate peripheral blood mononuclear cells (PBMC).
NK cells were isolated from PBMC by negative selection (NK cell isolation kit human, Miltenyi Biotec) with purity higher than 95%. NK cells were cultured for up to 36 h in RPMI 1640 supplemented with 10% FCS, 1% penicillin and streptomycin, 1% L-glutamine and 100 UI/mL IL-2 at 37° C., 5% CO2 at 1.10^6 cells/mL.

neutrophils = test: Killing effect on neutrophils (Annexin V / 7-AAD flow cytometry); format: cell-based, human; details: after 4 h of incubation; CD56 negative cells; at high concentration
Text: The neutrophils were isolated directly from whole blood of healthy adult volunteers at the Etablissement Français du Sang, according to institutional research protection guidelines agreement N° CA-REC-2019-188, Centre Val de Loire, France, by negative selection, using the kit (MACSxpress® Whole Blood Neutrophil Isolation Kit, MiltenyBiotech™). The neutrophils were used directly following their isolation and then resuspended in HBSS buffer (1X) (Gibco 15266355), at 1×10^6 cells/mL.
(§3) 5% of CO2. […] All products were tested after 4 days treatment on NK cells and 4 h on monocytes and neutrophils.

MKL-1 CRISPR CD56 = test: XTT assay, ADC-mediated cytotoxicity; format: cell-based; details: 4 days, CD56− cells, read-out: MKL-1 CRISPR CD56 n = 3 IC50
[3] = test system: CD56− cells (CRISPR-MCC cell lines WaGa and MKL-1); test: XTT assay, summary over CD56- CRISPR-MCC cell lines; format: cell-based; details: at high doses; in words
Description: To evaluate cell viability and cellular metabolic activity, XTT assays were performed according to standard protocols. WaGa, PeTa, H69, H209, H660 cell lines were plated in 3 replicates in a 96-well plate with 5.10^4 cells/well. […] Untreated cells were used as viability reference. Cells treated with 1% Triton X100 were used as cell death positive control. After 4 days, 25 μL XTT reagent at 1 mg/mL (Alfa Aesar, thermo Fisher) with N-methyl dibenzopyrazine methyl sulfate (PMS) activator (25 μM) was added per well and absorbance was measured at 450 nm after 4 h incubation. Absorbance at 620 nm was used as a reference. Three independent experiments have been performed.

monocytes = test: Killing effect on monocytes (Annexin V / 7-AAD flow cytometry); format: cell-based, human; details: after 4 h of incubation; in words
Description: as §2
Monocytes were isolated from PBMC by positive selection using anti-CD14 MicroBeads (Miltenyi Biotec) according to manufacturer recommendations. Monocytes were cultured in serum-free X-VIVO-15 medium (Lonza) at 1.10^6 cells/mL.
as §3

WaGa xenograft = test: Maximal tolerated dose evaluation on tumor bearing mice, single IV injection; format: in vivo, NOD/SCID mice; details: 70 mg/kg, ethical end point
[4] = test system: WaGa CD56 wild-type and WaGa CD56 knockout cells; details: MIO-003 at 5 or 50 nM for 6 days; in words
[5] = test system: CD56+ cell lines (WaGa, PeTa, MKL-1, H69, H209, H660); test: Flow cytometry binding of Alexa Fluor 750 labelled antibodies, CD56+ cell lines; details: 4° C., 30 minutes, in words
Description: (§4) Binding levels of L and mAb-003 have been evaluated on several tumor cell lines: MCC (WaGa, PeTa, MKL-1), SCLC (H69, H209) and prostate cancers (H660) as well as WaGa, PeTa and MKL-1 CD56-knocked out using CRISPR technology.
(§5) The L and mAb-003 were labelled with Alexa Fluor 750 (Alexa Fluor 750 Protein Labelling Kit, Invitrogen) to allow their detection by flow cytometry. The labelled antibodies were incubated with 1.10^5 cells at 4° C. for 30 minutes, then cells were washed twice with PBS supplemented with 1% FCS, and the binding was analysed by Flow cytometry on Cytoflex.

[6] = test system: CD56− cells (CRISPR WaGa, PeTa, MKL-1); test: Flow cytometry binding of Alexa Fluor 750 labelled antibodies, CD56- CRISPR cell lines; details: 4° C., 30 minutes, in words
Description: as §4, §5

B1: m906: human anti-CD56 antibody of type IgG1, light chain SEQ ID NO: 7, heavy chain SEQ ID NO: 8 (antibody)
heavy: EVQLVQSGAEVKKPGSSVKVSCKASGGTFTGYYMHWVRQAPGQGLEWMGWINPNSGGTNYAQKFQGRVTMTRDTSISTAYMELSRLRSDDTAVYYCARDLSSGYSGYFDYWGQGTLVTVSS[omitted - human IgG1 constant region]
light: DVVMTQSPLSLPVTPGEPASISCRSSQSLLHSNGYNFLDWYLQKPGQSPQLLIYLGSNRASGVPDRFSGSGSGTDFTLKISRVEADDVGVYYCMQSLQTPWTFGHGTKVEIKRTVAAPSVFIFPPSDEQLKSGTASVVCLLNNFYPREAKVQWKVDNALQSGNSQESVTEQDSKDSTYSLSSTLTLSKADYEKHKVYACEVTHQGLSSPVTKSFNRGEC
modifications: Chaine lourde du m906; Chaine l g re du m906
With B1 the “Binding (fixation) to cell line WaGa” value (WaGa) was “+”, the “Binding (fixation) to cell line MS-1” value (MS-1) was “+” and the “Binding (fixation) to cell line PeTa” value (PeTa) was “+”. For the same molecule, the “Binding (fixation) to cell line MKL-2” value (MKL-2) was “+”, the “Binding (fixation) to cell line SKBR3” value (SK-BR-3) was “−” and the “Internalisation in WaGa cells expressing CD56” value (WaGa cells; in words) was “internalized in the lysosome”. The “BDS score (LAMP1/m906)” value (WaGa cells; incubation period 5 minutes) was 1.4, the “Intracellular fluorescence of m906 (MFI)” value (WaGa cells; incubation period 5 minutes) was 50046 MFI and the “m906 fluorescence surface (MFI)” value (WaGa cells; incubation period 5 minutes) was 930 MFI. For the same molecule, the “Internalisation score for m906” value (WaGa cells; incubation period 5 minutes) was 7.08, the “BDS score (LAMP1/m906)” value (WaGa cells; incubation period 30 minutes) was 1.4 and the “Intracellular fluorescence of m906 (MFI)” value (WaGa cells; incubation period 30 minutes) was 50464 MFI. For the same molecule, the “m906 fluorescence surface (MFI)” value (WaGa cells; incubation period 30 minutes) was 580 MFI, the “Internalisation score for m906” value (WaGa cells; incubation period 30 minutes) was 7.96 and the Cytotoxic effect [1] was “neither the antibody m906 (i.e. non coupled to MMAE), nor the ADC MF-TTZ-MMAE (ADC control) has a cytotoxic effect”. For the same molecule, the Cytotoxic effect [2] was “neither the antibody m906 (i.e. non coupled to MMAE), nor the ADC MF-TTZ-MMAE (ADC control) has a cytotoxic effect”, the “Killing effect on primary NK cells (ADCC)” value (primary NK cells; after 4 h of incubation, listed as mAb-001) was “exerted a killing effect; also recorded: lower killing effect” and the “Killing effect towards neutrophils” value (neutrophils) was “below 10%”.

B2: MIO-003 (conjugate)
heavy: EVQLVQSGAEVKKPGSSVKVSCKASGGTFTGYYMHWVRQAPGQGLEWMGWINPNSGGTNYAQKFQGRVTMTRDTSISTAYMELSRLRSDDTAVYYCARDLSSGYSGYFDYWGQGTLVTVSS[omitted - human IgG1 constant region with changes]
light: DVVMTQSPLSLPVTPGEPASISCRSSQSLLHSNGYNFLDWYLQKPGQSPQLLIYLGSNRASGVPDRFSGSGSGTDFTLKISRVEADDVGVYYCMQSLQTPWTFGHGTKVEIKRTVAAPSVFIFPPSDEQLKSGTASVVCLLNNFYPREAKVQWKVDNALQSGNSQESVTEQDSKDSTYSLSSTLTLSKADYEKHKVYACEVTHQGLSSPVTKSFNRGEC
For B2, the IC50 (MKL-1 CRISPR CD56) was 637 nM, the “Cytotoxicity on CD56− cells” value [3] was “not cytotoxic” and the “Killing effect towards neutrophils” value (neutrophils) was “around 5%”. The “Killing effect on monocytes” value (monocytes) was “negligible killing effect”, the mice weight variation (WaGa xenograft) was “exceeded 20%” and the “Bystander effect (G2/M arrest, sub-G1 increase)” value [4] was “exerted a bystander effect”.

B3: mAb-003: Deglycosylated m906, Asn297 mutated; light chain SEQ ID NO: 7, heavy chain SEQ ID NO: 17 (antibody)
heavy: EVQLVQSGAEVKKPGSSVKVSCKASGGTFTGYYMHWVRQAPGQGLEWMGWINPNSGGTNYAQKFQGRVTMTRDTSISTAYMELSRLRSDDTAVYYCARDLSSGYSGYFDYWGQGTLVTVSS[omitted - human IgG1 constant region with changes]
light: DVVMTQSPLSLPVTPGEPASISCRSSQSLLHSNGYNFLDWYLQKPGQSPQLLIYLGSNRASGVPDRFSGSGSGTDFTLKISRVEADDVGVYYCMQSLQTPWTFGHGTKVEIKRTVAAPSVFIFPPSDEQLKSGTASVVCLLNNFYPREAKVQWKVDNALQSGNSQESVTEQDSKDSTYSLSSTLTLSKADYEKHKVYACEVTHQGLSSPVTKSFNRGEC
modifications: Asn297 mutated, deglycosylated; Chaine l g re du m906
B3 was tested, and the “Binding to CD56+ cells” value [5] was “strong binding”, the “Binding to CD56− cells (CRISPR cells)” value [6] was “without any binding” and the “Killing effect on primary NK cells” value (primary NK cells; after 4 days of incubation) was “reducing drastically the ADCC killing effect”.

Source: patent publication US20230405140A1, “ANTI-CD56 ANTIBODY-DRUG CONJUGATES AND THEIR USE IN THERAPY” (MCSAF INSIDE ONCOLOGY, priority 2020, published 2023)
